{"source": "paper PMC2918618", "about": "“Characterization of the TnsD-attTn7 complex that promotes site-specific insertion of Tn7” (Mobile DNA, 2010)", "experiment_in_all_cases": "two-hybrid; yeast two-hybrid (ProQuest Two-Hybrid System); TnsD in pDBLeu (Gal4-DB), TnsC in pPC86 (Gal4-AD); read-out β-galactosidase activity; empty vectors gave 0.075", "key": {"[1]": {"target": "T1, TnsD (1 to 436) (E. coli (transposon Tn7)) (UniProt P13991)", "T1 sequence": "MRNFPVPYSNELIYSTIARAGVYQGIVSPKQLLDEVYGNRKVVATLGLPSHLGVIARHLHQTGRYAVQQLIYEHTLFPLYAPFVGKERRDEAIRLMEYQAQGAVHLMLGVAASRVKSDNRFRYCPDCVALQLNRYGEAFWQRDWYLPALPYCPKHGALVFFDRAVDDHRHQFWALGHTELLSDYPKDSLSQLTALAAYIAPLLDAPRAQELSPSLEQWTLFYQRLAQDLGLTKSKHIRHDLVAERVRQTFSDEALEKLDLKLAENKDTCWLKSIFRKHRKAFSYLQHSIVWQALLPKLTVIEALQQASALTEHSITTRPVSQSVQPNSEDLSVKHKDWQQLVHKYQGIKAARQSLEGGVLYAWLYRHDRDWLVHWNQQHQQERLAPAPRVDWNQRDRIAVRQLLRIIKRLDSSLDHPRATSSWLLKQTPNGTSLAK"}, "[2]": {"target": "T2, TnsD (12 to 507) (E. coli (transposon Tn7)) (UniProt P13991)", "T2 sequence": "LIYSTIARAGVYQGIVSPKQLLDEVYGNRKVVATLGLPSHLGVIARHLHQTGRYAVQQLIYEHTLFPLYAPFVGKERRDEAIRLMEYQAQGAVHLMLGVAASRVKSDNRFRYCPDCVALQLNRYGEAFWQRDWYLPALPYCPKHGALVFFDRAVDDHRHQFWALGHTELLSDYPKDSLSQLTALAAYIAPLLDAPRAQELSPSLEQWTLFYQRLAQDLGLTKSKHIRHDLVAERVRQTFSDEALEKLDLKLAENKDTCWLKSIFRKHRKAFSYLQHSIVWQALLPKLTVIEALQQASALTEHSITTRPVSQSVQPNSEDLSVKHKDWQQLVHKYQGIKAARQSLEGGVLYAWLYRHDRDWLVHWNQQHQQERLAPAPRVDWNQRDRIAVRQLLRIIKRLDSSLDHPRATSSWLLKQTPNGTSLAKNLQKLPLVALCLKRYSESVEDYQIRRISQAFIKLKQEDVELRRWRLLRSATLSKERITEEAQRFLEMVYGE"}, "[3]": {"target": "T3, TnsD (16 to 507) (E. coli (transposon Tn7)) (UniProt P13991)", "T3 sequence": "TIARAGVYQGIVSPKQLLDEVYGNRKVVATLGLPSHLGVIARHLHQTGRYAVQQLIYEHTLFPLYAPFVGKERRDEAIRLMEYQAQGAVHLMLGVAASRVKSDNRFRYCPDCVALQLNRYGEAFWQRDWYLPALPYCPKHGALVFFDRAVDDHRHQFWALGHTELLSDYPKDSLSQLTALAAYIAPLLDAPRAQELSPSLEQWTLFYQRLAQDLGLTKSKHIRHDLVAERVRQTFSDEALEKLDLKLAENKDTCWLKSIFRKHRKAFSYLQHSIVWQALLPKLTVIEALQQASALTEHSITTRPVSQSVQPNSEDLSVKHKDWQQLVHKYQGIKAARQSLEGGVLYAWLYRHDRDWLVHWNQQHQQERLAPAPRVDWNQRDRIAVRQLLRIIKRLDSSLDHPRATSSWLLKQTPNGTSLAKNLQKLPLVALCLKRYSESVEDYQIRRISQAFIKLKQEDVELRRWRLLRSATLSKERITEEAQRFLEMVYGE"}, "[4]": {"target": "T4, TnsD (22 to 507) (E. coli (transposon Tn7)) (UniProt P13991)", "T4 sequence": "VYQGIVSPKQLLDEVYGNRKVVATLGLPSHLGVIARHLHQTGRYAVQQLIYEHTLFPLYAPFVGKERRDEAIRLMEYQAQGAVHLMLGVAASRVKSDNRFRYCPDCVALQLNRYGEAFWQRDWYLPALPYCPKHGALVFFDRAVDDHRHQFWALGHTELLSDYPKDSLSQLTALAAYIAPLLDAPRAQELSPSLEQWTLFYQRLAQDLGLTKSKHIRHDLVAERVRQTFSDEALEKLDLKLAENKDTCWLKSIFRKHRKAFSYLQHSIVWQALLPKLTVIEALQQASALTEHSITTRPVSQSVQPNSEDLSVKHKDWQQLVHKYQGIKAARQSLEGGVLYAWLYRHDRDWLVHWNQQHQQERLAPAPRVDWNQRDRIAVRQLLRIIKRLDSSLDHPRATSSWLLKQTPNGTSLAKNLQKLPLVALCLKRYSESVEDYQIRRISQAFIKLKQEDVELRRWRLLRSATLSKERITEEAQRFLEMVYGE"}, "[5]": {"target": "T5, TnsD (8 to 507) (E. coli (transposon Tn7)) (UniProt P13991)", "T5 sequence": "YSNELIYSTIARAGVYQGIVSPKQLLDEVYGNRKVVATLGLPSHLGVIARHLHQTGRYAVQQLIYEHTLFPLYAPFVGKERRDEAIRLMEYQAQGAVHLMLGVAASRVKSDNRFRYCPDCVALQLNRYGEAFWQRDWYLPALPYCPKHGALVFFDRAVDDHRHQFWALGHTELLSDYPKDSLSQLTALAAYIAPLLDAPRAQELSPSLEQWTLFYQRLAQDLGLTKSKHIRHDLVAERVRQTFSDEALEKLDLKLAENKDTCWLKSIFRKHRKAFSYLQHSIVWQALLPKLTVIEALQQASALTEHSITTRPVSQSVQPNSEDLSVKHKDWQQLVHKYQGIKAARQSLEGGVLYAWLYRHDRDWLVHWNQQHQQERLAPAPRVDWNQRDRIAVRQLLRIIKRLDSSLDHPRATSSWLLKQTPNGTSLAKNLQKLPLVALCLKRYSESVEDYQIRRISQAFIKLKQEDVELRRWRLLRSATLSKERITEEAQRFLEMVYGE"}, "[6]": {"target": "T6, TnsD 1 to 480 (E. coli (transposon Tn7)) (UniProt P13991)", "T6 sequence": "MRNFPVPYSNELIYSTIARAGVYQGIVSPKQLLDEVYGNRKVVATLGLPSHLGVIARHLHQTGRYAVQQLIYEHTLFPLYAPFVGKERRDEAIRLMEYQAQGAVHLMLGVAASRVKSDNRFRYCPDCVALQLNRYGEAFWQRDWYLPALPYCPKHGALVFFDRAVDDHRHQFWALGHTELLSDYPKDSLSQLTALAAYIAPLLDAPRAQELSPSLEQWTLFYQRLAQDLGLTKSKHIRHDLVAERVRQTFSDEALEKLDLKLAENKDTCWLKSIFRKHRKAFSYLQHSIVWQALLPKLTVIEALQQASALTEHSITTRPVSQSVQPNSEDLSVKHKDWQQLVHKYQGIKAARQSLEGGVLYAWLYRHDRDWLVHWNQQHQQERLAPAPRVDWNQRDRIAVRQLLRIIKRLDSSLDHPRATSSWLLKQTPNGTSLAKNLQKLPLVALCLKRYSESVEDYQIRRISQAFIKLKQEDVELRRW"}, "[7]": {"target": "T7, TnsD 1 to 490 (E. coli (transposon Tn7)) (UniProt P13991)", "T7 sequence": "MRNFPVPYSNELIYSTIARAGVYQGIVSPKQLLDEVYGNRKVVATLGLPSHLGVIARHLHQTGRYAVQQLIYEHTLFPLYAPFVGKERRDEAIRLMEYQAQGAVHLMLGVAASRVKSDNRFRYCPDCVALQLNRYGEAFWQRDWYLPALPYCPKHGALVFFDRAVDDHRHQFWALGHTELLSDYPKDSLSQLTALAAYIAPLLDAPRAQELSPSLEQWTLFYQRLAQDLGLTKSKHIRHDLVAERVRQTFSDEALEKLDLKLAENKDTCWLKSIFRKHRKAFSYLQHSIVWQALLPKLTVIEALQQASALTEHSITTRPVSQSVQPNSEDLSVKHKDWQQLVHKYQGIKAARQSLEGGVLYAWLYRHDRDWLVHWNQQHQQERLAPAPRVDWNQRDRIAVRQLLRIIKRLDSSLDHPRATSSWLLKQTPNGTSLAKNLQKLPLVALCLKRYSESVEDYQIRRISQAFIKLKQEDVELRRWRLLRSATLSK"}, "[8]": {"target": "T8, TnsD 1 to 498 (E. coli (transposon Tn7)) (UniProt P13991)", "T8 sequence": "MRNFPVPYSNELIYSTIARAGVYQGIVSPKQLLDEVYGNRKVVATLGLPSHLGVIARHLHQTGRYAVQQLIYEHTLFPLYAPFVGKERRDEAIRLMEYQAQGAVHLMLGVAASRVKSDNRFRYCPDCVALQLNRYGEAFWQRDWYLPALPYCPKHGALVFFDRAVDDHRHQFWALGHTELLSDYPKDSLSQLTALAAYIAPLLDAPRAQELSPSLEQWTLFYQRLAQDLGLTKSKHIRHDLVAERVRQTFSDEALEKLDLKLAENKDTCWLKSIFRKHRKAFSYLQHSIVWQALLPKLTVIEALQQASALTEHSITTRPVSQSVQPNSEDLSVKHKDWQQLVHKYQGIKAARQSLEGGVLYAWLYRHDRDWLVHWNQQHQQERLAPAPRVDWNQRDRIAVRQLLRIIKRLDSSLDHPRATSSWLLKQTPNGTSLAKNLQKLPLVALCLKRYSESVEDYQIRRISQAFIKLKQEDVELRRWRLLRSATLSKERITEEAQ"}}, "note": "Results are given in words; binding and its absence hold for the method and conditions named. Some results given as binding are weak or reduced against the parent protein; the word gives no strength."}
{"binder": "TnsC (1 to 555) wt (natural protein, E. coli (transposon Tn7), UniProt P05846 1-555, looked up, TnsC, transposition protein of the bacterial transposon Tn7, residues 1 to 555 (full-length is 555 aa); TnsC was cloned into pPC86 (ProQuest Two-Hybrid System); also called full-length TnsC; source: yeast two-hybrid fusion) MSATRIQAVYRDTGVEAYRDNPFIEALPPLQESVNSAASLKSSLQLTSSDLQKSRVIRAHTICRIPDDYFQPLGTHLLLSERISVMIRGGYVGRNPKTGDLQKHLQNGYERVQTGELETFRFEEARSTAQSLLLIGCSGSGKTTSLHRILATYPQVIYHRELNVEQVVYLKIDCSHNGSLKEICLNFFRALDRALGSNYERRYGLKRHGIETMLALMSQIANAHALGLLVIDEIQHLSRSRSGGSQEMLNFFVTMVNIIGVPVMLIGTPKAREIFEADLRSARRGAGFGAIFWDPIQQTQRGKPNQEWIAFTDNLWQLQLLQRKDALLSDEVRDVWYELSQGVMDIVVKLFVLAQLRALALGNERITAGLLRQVYQDELKPVHPMLEALRSGIPERIARYSDLVVPEIDKRLIQLQLDIAAIQEQTPEEKALQELDTEDQRHLYLMLKEDYDSSLLIPTIKKAFSQNPTMTRQKLLPLVLQWLMEGETVVSELEKPSKSKKVSAIKVVKPSDWDSLPDTDLRYIYSQRQPEKTMHERLKGKGVIVDMASLFKQAG", "values": [{"measurement": "binding", "setting": "[1]", "result": "no binding"}, {"measurement": "binding", "setting": "[2]", "result": "no binding"}, {"measurement": "binding", "setting": "[3]", "result": "no binding"}, {"measurement": "binding", "setting": "[4]", "result": "no binding"}, {"measurement": "binding", "setting": "[5]", "result": "no binding"}, {"measurement": "binding", "setting": "[6]", "result": "binds"}, {"measurement": "binding", "setting": "[7]", "result": "binds"}, {"measurement": "binding", "setting": "[8]", "result": "binds"}]}
